Measured values as given in ChEMBL document CHEMBL3132811, “Development and evaluation of selective, reversible LSD1 inhibitors derived from fragments” (Medchemcomm, 2013).

target: T1, Amine oxidase [flavin-containing] A (Homo sapiens, UniProt P21397); assay: Inhibition of MAO-A (unknown origin) assessed as oxidative deamination of kynuramine to 4-hydroxyquinoline after 30 mins by fluorescence assay; details: not given
T1 sequence (P21397 whole entry): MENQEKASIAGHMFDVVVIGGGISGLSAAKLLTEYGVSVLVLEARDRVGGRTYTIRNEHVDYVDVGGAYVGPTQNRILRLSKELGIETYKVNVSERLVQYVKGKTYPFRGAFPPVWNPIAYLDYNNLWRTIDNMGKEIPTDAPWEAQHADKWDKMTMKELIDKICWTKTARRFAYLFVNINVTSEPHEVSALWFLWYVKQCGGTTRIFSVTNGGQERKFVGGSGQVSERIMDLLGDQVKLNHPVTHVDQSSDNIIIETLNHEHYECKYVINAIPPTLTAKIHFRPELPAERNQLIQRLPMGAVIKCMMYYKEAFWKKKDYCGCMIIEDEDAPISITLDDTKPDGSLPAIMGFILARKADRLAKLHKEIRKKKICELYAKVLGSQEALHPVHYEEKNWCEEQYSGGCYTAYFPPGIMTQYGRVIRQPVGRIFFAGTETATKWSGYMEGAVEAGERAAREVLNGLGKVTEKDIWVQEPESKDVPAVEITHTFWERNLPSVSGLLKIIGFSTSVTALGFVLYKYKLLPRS

IC50 [µM]	Structure (SMILES)
28.4	COc1ccc(S(=O)(=O)Nc2nc(-c3ccc(Cl)cc3)cs2)cc1
> 500	O=[N+]([O-])c1ccccc1-c1csc(NS(=O)(=O)c2cccc(Cl)c2)n1
4.81	O=S(=O)(Nc1nc(-c2ccc3c(c2)OCCO3)cs1)c1cccc(Cl)c1
44.2	O=S(=O)(Nc1nc(-c2cccc(Br)c2)cs1)c1cccc(Cl)c1
25.8	O=S(=O)(Nc1nc(-c2cccc(Cl)c2)cs1)c1cccc(Cl)c1
14.5	COc1cccc(-c2csc(NS(=O)(=O)c3cccc(Cl)c3)n2)c1
> 500	O=[N+]([O-])c1ccc(S(=O)(=O)Nc2nc(-c3ccc(Cl)cc3)cs2)cc1
178	O=S(=O)(Nc1nc(-c2ccc(Br)cc2)cs1)c1cccc(Cl)c1
25.3	O=[N+]([O-])c1ccc(-c2csc(NS(=O)(=O)c3cccc(Cl)c3)n2)cc1
> 500	O=S(=O)(Nc1nc(-c2ccccc2Cl)cs1)c1cccc(Cl)c1
89.3	Cc1ccccc1S(=O)(=O)Nc1nc(-c2ccc(Cl)cc2)cs1
6.5	COc1ccc(-c2csc(NS(=O)(=O)c3cccc(Cl)c3)n2)cc1
67.3	O=S(=O)(Nc1nc(-c2ccccc2)cs1)c1cccc(Cl)c1
132	O=S(=O)(Nc1nc(-c2ccc(Cl)cc2)cs1)c1ccccc1C(F)(F)F
88.9	O=[N+]([O-])c1ccccc1S(=O)(=O)Nc1nc(-c2ccc(Cl)cc2)cs1
38.3	Cc1cccc(S(=O)(=O)Nc2nc(-c3ccc(Cl)cc3)cs2)c1
207	O=[N+]([O-])c1cccc(S(=O)(=O)Nc2nc(-c3ccc(Cl)cc3)cs2)c1
118	O=[N+]([O-])c1cccc(-c2csc(NS(=O)(=O)c3cccc(Cl)c3)n2)c1
9.5	Cn1nccc1-c1cncc(S(=O)(=O)Nc2nc(-c3ccc(Cl)cc3)cs2)c1

target: T2, Lysine-specific histone demethylase 1A (Homo sapiens, UniProt O60341); details: at 125 µM

inhibition [%]	Structure (SMILES)
35	CC(=O)c1csc(Nc2ccccc2Cl)n1

target: T2, Lysine-specific histone demethylase 1A; assay: Inhibition of LSD1 (unknown origin) using H3K4 peptide as substrate; details: not given

IC50 [µM]	Structure (SMILES)
9.5	CSCCc1nc(-c2cccc(NC(=N)N)c2)oc1C

system: THP-1; assay: Cytotoxicity against human THP1 cells after 24 hrs; type: ADME, cell-based; details: thp-1, 24 h

Structure (SMILES)	Activity
C/C(=N\NC(=O)c1cccc(S(=O)(=O)N2CCOCC2)c1)c1ccc(Cl)cc1O	>= 2 uM
Cc1ccc(-c2ncc(OC[C@@H]3CCNC3)cc2-c2ccc(C#N)cc2)cc1	> 20 µM
COc1ncccc1CNC1CC1c1ccccc1 (stereo not given)	> 20 µM

target: T2, Lysine-specific histone demethylase 1A; assay: Inhibition of LSD1 (unknown origin) using histone H3 (1 to 21) K4(Me1)-biotin peptide as substrate after 30 mins by HTRF assay; details: not given

IC50 [µM]	Structure (SMILES)
> 188	O=C(Nc1nc(-c2ccc(Cl)cc2)cs1)c1ccccc1
> 188	CS(=O)(=O)Nc1nc(-c2ccc(Cl)cc2)cs1
> 188	CC(=O)c1csc(NC(=O)Nc2ccccc2)n1
> 188	CC(=O)c1csc(NS(=O)(=O)c2ccccc2)n1
> 188	CC(=O)c1csc(NC(=O)c2ccccc2)n1
> 188	CC(=O)c1csc(Nc2ccccc2Cl)n1

target: T2, Lysine-specific histone demethylase 1A; assay: Inhibition of N-terminal 6X His-tagged human recombinant full-length LSD1 expressed in Escherichia coli BL21(DE3) using H3K4me2 (1 to 21) peptide as substrate at 10 uM after 3 hrs by chemiluminescence assay relative to control; details: not given

inhibition [%]	Structure (SMILES)
> 50	CSCCc1nc(-c2cccc(NC(=N)N)c2)oc1C

target: T2, Lysine-specific histone demethylase 1A; details: at 500 µM

inhibition [%]	Structure (SMILES)
82	CC(=O)c1csc(Nc2ccccc2Cl)n1

system: THP-1; assay: Cytotoxicity against human THP1 cells at > 50 uM after 24 hrs; type: ADME, cell-based; details: thp-1, 24 h

Structure (SMILES)	Activity
O=S(=O)(Nc1nc(-c2ccc(Cl)cc2)cs1)c1cccc(-c2ccccc2)c1	Toxic
O=S(=O)(Nc1nc(-c2cccc(Cl)c2)cs1)c1cccc(Cl)c1	Toxic
O=S(=O)(Nc1nc(-c2ccc(Cl)cc2)cs1)c1cccc(C(F)(F)F)c1	Toxic
